About 7,500 (2.1%) of roughly 360,000 compounds were called active. Inconclusive means that the source gave no clear call. Such entries were picked first, then a sample of the others. The call rests on the fitted dose curve; in most records, active means well fitted cell-killing curve with a large enough effect; inconclusive means small, poorly fitted or top-dose-only effect, or effect the other way, or another doubt; inactive means no such curve, though single readings can be large or run the other way. No potency is given beside an inconclusive call; the fits are too rough.
experiment: qHTS for induction of synthetic lethality in tumor cells producing 2HG: qHTS for the HT-1080-IDH1KD cell line; conditions: HT-1080 IDH1 knockdown viability, ATP luminescence, 48 h; activity, negative = toxicity: at 46.1 µM (top of the series) unless noted;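 on activity, negative = toxicity: 0% = DMSO wells and -100% = cell-free medium wells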
Procedure, shortened: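 Luminescent ATP read-out (CellTiter-Glo, 10 min at room temperature) after 48 h compound exposure at 37 °C gave viability of IDH1-knockdown HT-1080 cells. Activity was normalised to DMSO and cell-free wells, then fitted as concentration-response curves.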
Potency means the concentration at half of the fitted maximal effect; tags describe the fitted curve by direction and shape.

| SMILES | Potency | activity, negative = toxicity |
| --- | --- | --- |
| CCCOc1ccc(/C=N/NC(=S)Nc2ccccc2[N+](=O)[O-])c(O)c1 | active: 14.6 µM |  |
| COc1ccc(/C=C/C(=O)NC(=S)NNC(=O)c2c(-c3ccccc3)noc2C)cc1 | inconclusive [cytotoxic, single point] |  |
| Oc1ccc(Nc2nc(NCC3CCCO3)c3ccccc3n2)cc1 (stereo not drawn) | inconclusive [cytotoxic, partial curve] |  |
| CN(Cc1c(C(=O)N/N=C/c2ccccc2O)nnn1-c1nonc1N)C1CCCCC1 | inconclusive [cytotoxic, partial curve] |  |
| Cc1c(Cl)cccc1-n1c(SCC(=O)N2CCC(C(=O)O)CC2)nc2ccccc2c1=O |  | inactive: 10.5% |
| CCOC(=O)COc1ccc(C2NC(C(=O)O)CS2)cc1 (stereo not drawn) |  | inactive: 0.0464% |
| Cc1ccc(Cc2cc(-c3ccc(C)cc3)n[nH]c2=O)cc1 | inconclusive [cytotoxic, single point] |  |
| O=C(CSc1ccccc1)Nc1ccc(C(=O)Nc2ccc(O)cc2)cc1 | inconclusive [cytotoxic, full curve] |  |
| O=C(C[n+]1cccc2ccccc21)c1ccc(NC(=O)c2ccccc2)cc1 |  | inactive: -7.71% |
| CC(NC(=O)c1cccnc1Sc1ccccc1)c1ccc(S(N)(=O)=O)cc1 (stereo not drawn) |  | inactive: 5.94% |
| CCOc1ccc(S(=O)(=O)NCc2ccco2)c2ccccc12 | inconclusive [cytotoxic, single point] |  |
| COC(=O)c1c(NC(=O)c2nc3ccccc3s2)sc2c1CCN(C(C)=O)C2 |  | inactive: -3.47% |
| O=C(NCc1ccc2c(c1)OCO2)c1nc(Cn2cc(Br)cn2)no1 |  | inactive: 0.994% |
| CSc1ccc(/C=N/NC(=O)c2ccccc2Cl)cc1 | inconclusive [cytotoxic, partial curve] |  |
| COCCNC(=O)C1(C)Cc2c(-c3ccc4c(c3)OCO4)ccnc2O1 (stereo not drawn) | active: 18.4 µM |  |
| Cc1cnc2nc(-c3ccccc3)ccc2c1 |  | inactive: -24.2% |
| CCOC(=O)c1c(C)[n+](-c2ccc(C)cc2)c(CC)c2cc(OC)c(OC)cc12 | inconclusive [cytotoxic, single point] |  |
| CCN(CCCc1ccccc1)CCCc1ccccc1 | inconclusive [cytotoxic, single point] |  |
| COc1ccccc1NC(=O)CCc1nc(-c2cccs2)no1 |  | inactive: 17.5% |
| Cc1cccc(C(=O)NCC(c2cccs2)N2CCOCC2)c1 (stereo not drawn) |  | inconclusive: -33.7% [cytotoxic] |
| COC(=O)Nc1ccc(SCC(=O)c2cccc([N+](=O)[O-])c2)cc1 | inconclusive [cytotoxic, single point] |  |
| Cc1ccc2nc(/C(C#N)=C\c3cc(C)n(-c4cccc([N+](=O)[O-])c4)c3C)[nH]c2c1 | inconclusive [cytotoxic, single point] |  |
| C/C=C(/CCC1NCCc2c1[nH]c1ccccc21)[Si](C)(C)C (stereo not drawn) | inconclusive [cytotoxic, single point] |  |
| CCOC(=O)c1cc(-c2cccs2)nc2c1c(C)nn2-c1ccccn1 | inconclusive [cytotoxic, single point] |  |

| SMILES | Potency | activity, negative = toxicity |
| --- | --- | --- |
| CCCCCCNc1cc2n(c(=O)n1)CCc1cc(OC)c(OC)cc1-2 |  | inconclusive: -0.595% |
| C=CCOC(=O)C1=C(C)NC(C)=C(C(=O)OCC=C)C1c1ccco1 |  | inactive: -2.31% |
| Cc1ccc(C23CC4CC(CC(C(=O)NN)(C4)C2)C3)cc1 |  | inactive: -7.77% |
| NC(=O)NN=C1C2CCCC1C(c1ccccc1)NC2c1ccccc1 (stereo not drawn) | inconclusive [cytotoxic, single point] |  |
| c1ccc(-c2n[nH]c(-c3ccccn3)n2)cc1 | active: 5.8 µM |  |
| Nc1ccccc1-c1nnc(-c2ccc(-c3ccccc3)cc2)o1 | inconclusive [cytotoxic, single point] |  |
| CCOC(=O)c1ccc(NC(=O)c2nc[nH]c2C(=O)NCC(=O)OC(C)(C)C)cc1 | inconclusive [cytotoxic, single point] |  |
| O=C(OCC12CC3CC(CC(C3)C1)C2)c1ccc(NCc2cc(O)ccc2O)cc1 | active: 20.6 µM |  |
| Cc1cccc(NC(=O)c2onc3c2CCCC3)n1 | inconclusive [cytotoxic, single point] |  |
| Cc1ccc(NC2=C/C(=N/S(=O)(=O)c3cccs3)c3ccccc3C2=O)cc1 | active: 4.11 µM |  |
| O=C(O)c1c2c(nc3ccc(S(=O)(=O)N4CCC(C(=O)NCc5ccccc5Cl)CC4)cc13)CCCC2 |  | inactive: 12.7% |
| Oc1ccc(/C(Cc2ccccn2)=N\Nc2ccccc2)c(O)c1 | active: 9.2 µM |  |
| CC(C)(C)C(=O)/C(=C/c1ccncc1)n1cncn1 | active: 7.31 µM |  |
| CCN1CCN(c2nc(-c3ccccc3)c3ccccc3n2)CC1 | inconclusive [cytotoxic, single point] |  |
| CC1(Oc2cccc(F)c2)CCN(Cc2csc3ccccc23)C1 (stereo not drawn) |  | inactive: 1.88% |
| CCCN1CCc2c(sc(NC(=O)c3ccc(S(=O)(=O)N(C)c4ccccc4)cc3)c2C(=O)NC)C1 | inconclusive [cytotoxic, single point] |  |
| C[C@@H]1Cc2[nH][nH]c(=O)c2[C@H](C)O1 |  | inactive: 9.77% |
| S=C(Nc1ccc(Cl)cc1)NC1CC2CCC(C1)N2Cc1ccccc1 (stereo not drawn) | active: 18.4 µM |  |
| COc1cc(CNCc2ccccn2)ccc1OCc1ccc(Cl)cc1Cl | active: 20.6 µM |  |
| Cc1ccc(C(=O)c2no[n+]([O-])c2C(=O)c2ccc(C)cc2)cc1 | inconclusive [cytotoxic, single point] |  |
| Oc1ccc(Br)cc1CNc1cccc2cccnc12 | inconclusive [cytotoxic, single point] |  |
| CC1(C(=O)NCc2ccco2)Cc2c(-c3cccc(C(N)=O)c3)ccnc2O1 (stereo not drawn) | inconclusive [cytotoxic, partial curve] |  |
| CCOC(=O)CNC(=O)CSc1ncnc2c1cnn2Cc1ccccc1 | active: 18.4 µM |  |
| COc1cc(C(=O)O/N=C(\N)Cc2ccc([N+](=O)[O-])cc2)cc(OC)c1OC | inconclusive [cytotoxic, single point] |  |

— PubChem BioAssay AID686971 (National Center for Advancing Translational Sciences (NCATS), 2013)
